Laboratory results published in PubChem BioAssay AID686978 (National Center for Advancing Translational Sciences (NCATS), 2013).
The campaign covered roughly 420,000 compounds. About 64,000 (15%) were called active. Inconclusive means that the source gave no clear call. Such entries were picked first, then a sample of the others. Calls follow the shape of the dose curve; as a rule, active = well fitted inhibition curve with a large enough effect; inconclusive = small, poorly fitted or top-dose-only effect; inactive = flat fitted curve, though single readings scatter. Potencies of inconclusive entries are left out as doubtful fits.

experiment: qHTS for Inhibitors of human tyrosyl-DNA phosphodiesterase 1 (TDP1): qHTS in cells in absence of CPT; conditions: DT40 Tdp1-/- hTDP1 cells, no CPT, ATP luminescence, 48 h; activity change, negative = growth inhibition: at 46.2 µM (top of the series) unless noted; also: nearly all actives have a fitted effect of over 55% in size
Outline: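 Growth kinetics read by CellTiter-Glo luminescence after ≥48 hr at 37 °C. Cells: DT40 Tdp1-/- stably carrying human TDP1, 400 per well, compound exposure in the absence of CPT (DMSO vehicle).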
% is scaled to controls: 0 for no effect and ±100 for the full control effect; potency is read from the fitted curve at half-maximal effect; tags tell the direction and shape of the fitted curve.

SMILES | Potency | activity change, negative = growth inhibition
COc1ccc(NC(=O)c2sc3nc(-c4cccnc4)ccc3c2N)cc1OC | inactive | 
COc1ccc(C(=O)N(CCc2ccccc2)Cc2ccccc2)cc1S(=O)(=O)N1CCOCC1 | active: 16.4 µM | 
CSc1cccc(NC(=O)CCCNC(=O)c2ccc(Cl)cc2)c1 | inconclusive [inhibitor, partial curve, poor fit] | 
O=C(CSc1nnc(-c2ccccc2)n1-c1ccccc1)NCc1ccco1 | inconclusive [inhibitor, single point] | 
Cc1ccc(-c2nn[nH]n2)cc1 | inconclusive [inhibitor, full curve] | 
COC(=O)C1=C(C)N(c2ccc(Cl)c(Cl)c2)C(=O)C1 | active: 5.17 µM | 
Cc1cc(C(C)(C)C)oc1C(=O)OCC(=O)NC1CCCCC1 | inconclusive [inhibitor, single point] | 
Cc1cc(C)c2c(CN3CC(C)OC(C)C3)cc(=O)oc2c1C (stereo not drawn) | inconclusive [inhibitor, single point] | 
CCn1nc(C(=O)Nc2nc(-c3ccccn3)cs2)c2ccccc2c1=O | active: 3.26 µM | 
O=C(CCS(=O)(=O)c1ccccc1)N(Cc1cccnc1)c1nc2ccc(Cl)cc2s1 | active: 13 µM | 
Nc1ccc2ccc(O)cc2c1 | inactive | 
Cc1ccc(CS(=O)(=O)CCC(=O)NCc2ccccn2)cc1 | inactive | 
COc1ccc(-c2noc(N3CCC(C(=O)NCc4ccccc4Cl)CC3)n2)cc1 | active: 25.9 µM | 
NC(N)=Nc1nc(CCN2C(=O)c3ccccc3C2=O)cs1 | inactive | 
O=S(=O)(c1ccccc1)c1nc(-c2ccccc2)oc1N1CCCC1 | inactive | 
COc1ccc(C2(CNC(=O)c3ccc(Br)o3)CCOCC2)cc1 | inconclusive [inhibitor, single point] | 
COc1ccc(N2CCN(CCCNC(=O)c3cc(Nc4ccc(OC)cc4OC)nc4ccccc34)CC2)cc1 | active: 20.6 µM | 
Cc1cccc(N=C2NC(=O)/C(=C3/C(=O)N(C)c4ccccc43)S2)c1C | inactive | 
OCCN1CCN(CCOc2cccc(Cl)c2)CC1 | inconclusive [inhibitor, single point] | 
COc1ccc2[nH]c(C(=O)Nc3ccc(F)cc3Br)cc2c1 | inactive | 
N#C/C(=C\c1ccc(-c2ccc(Br)cc2)o1)C(=O)NCCc1c[nH]c2ccccc12 | inconclusive [inhibitor, single point] | 
Cn1c(=O)c2c(nc(NCCNC(=O)c3ccco3)n2Cc2ccc(Cl)cc2Cl)n(C)c1=O | inconclusive [inhibitor, single point] | 
CC(C)(C)NC(=O)CN(C(=O)CS(=O)CC(=O)Nc1ccc(F)cc1)c1ccccc1F (stereo not drawn) | inactive | 
O=C(CN1CCN(c2ccccc2O)CC1)Nc1ccc(S(=O)(=O)N2CCCCCC2)cc1 | inconclusive [inhibitor, single point] | 
O=C(COc1ccc2c(c1)OCO2)NC12CC3CC(CC(C3)C1)C2 | inconclusive [inhibitor, single point] | 

SMILES | Potency | activity change, negative = growth inhibition
Cc1cc(C(=O)NCc2cccs2)c(C)o1 | active: 18.4 µM | 
COc1ccc2[nH]c3c(C)c4ccncc4c(C)c3c2c1 | active: 0.92 µM | 
COC(=O)C1=C[C@@H](C(=O)OC)[C@@H]2C3=C(C(=O)[C@]2(C)NC(=O)c2ccccc2)[C@H](C)n2c(=O)n(C)c(=O)n2[C@@H]3C1 | inactive | 
Cc1cccc(-n2c(=O)c3c(c4cc(C)ccc4n3C)n(CC(=O)N3CCCC3)c2=O)c1 | inactive | 
Cn1c(=O)oc2cc(S(=O)(=O)N3CCCC(C(=O)NC4CCCc5ccccc54)C3)ccc21 (stereo not drawn) | inconclusive [inhibitor, partial curve] | 
O=C(NC(=S)NNS(=O)(=O)c1ccc(Cl)cc1)c1cccnc1 | inconclusive [inhibitor, single point] | 
COc1ccc(C(=O)N2CCCC(Nc3ccc(C)c(C)c3)C2)cc1F (stereo not drawn) | inconclusive [inhibitor, single point] | 
CNc1ccccc1C(C)(C)c1cc(-c2cc(C)cc(C)c2)no1 | inconclusive [inhibitor, single point] | 
COc1ccc(CCNC(=O)c2csc3c2CCCC3)cc1OC | inconclusive [inhibitor, partial curve] | 
CCCCN1C2CCCC1CC(NC(=O)c1cccc(Cl)c1)C2 (stereo not drawn) | active: 23.1 µM | 
Cc1cc(C)nc(SCC(=O)Nc2ccc(N3CCOCC3)cc2)n1 | inconclusive [inhibitor, single point] | 
CCCc1nc2sc3ccccc3c(=O)c2c(=O)n1Cc1ccco1 | inconclusive [inhibitor, single point] | 
CC(C)(C)c1ccc(C(=O)NCC(=O)N2CCCC2)cc1 | inactive | 
O=C(CN1CCC(NC(=O)Nc2ccccc2)CC1)Nc1ccc([N+](=O)[O-])cc1 | inconclusive [inhibitor, full curve, poor fit] | 
c1nnc(NCNc2nncs2)s1 | inconclusive [inhibitor, single point] | 
Cc1cc(C(=O)N2CCN(C/C=C/c3ccccc3)CC2)cs1 | inactive | 
CCC(C)N1C(=O)c2ccccc2C1C(=O)NC1CCCCCC1 (stereo not drawn) |  | inconclusive: -32.5% [inhibitor]
CN1OC[C@@H]2CN[C@H](c3ccc(-c4ccccc4)cc3)C[C@@H]21 | inconclusive [inhibitor, single point] | 
CCOc1ccc(N(CC)S(=O)(=O)N2CCCC(C(=O)Nc3ccc(C(C)=O)cc3)C2)cc1 (stereo not drawn) | active: 23.1 µM | 
CCN(CC)S(=O)(=O)c1ccc(Cl)c(C(=O)Nc2nncs2)c1 | inactive | 
Cc1cc(C(=O)C(C(c2ccccc2)N2CCOCC2)N2CCOCC2)ccc1Cl (stereo not drawn) | inconclusive [inhibitor, partial curve, poor fit] | 
COc1ccc(C(=O)CCC(=O)Nc2cc(Cl)c(O)c(Cl)c2)cc1 | inactive | 
Cc1ccc(C(=O)NC2CCCN(c3ccc(C(F)(F)F)cn3)C2)cn1 (stereo not drawn) | inconclusive [inhibitor, single point] | 
NC1=C(Cl)C(=O)c2ccc(S(N)(=O)=O)cc2C1=O | active: 0.461 µM | 
CCc1ccc(-n2c(=O)c3c4c(sc3n(CC(=O)N3CCCCC3CC)c2=O)CCC4)cc1 (stereo not drawn) | inconclusive [inhibitor, single point] | 

SMILES | Potency | activity change, negative = growth inhibition
CCCCNC(=O)c1nc(C2CCN(S(=O)(=O)c3ccc(C(F)(F)F)cc3)CC2)oc1-c1ccccc1 | active: 7.31 µM | 
O=C(CN1C(=O)c2cccnc2Oc2ccc(Cl)cc21)NC1CCCCCC1 | inactive | 
COc1ccc(-c2nc(CS(=O)CC(=O)NCc3ccccn3)c(C)o2)cc1 (stereo not drawn) | inconclusive [inhibitor, partial curve] | 
c1ccc(-c2nnc(CN3CCCc4ccccc43)o2)cc1 | active: 23.1 µM | 
Cc1cccn2c(=O)c3cc(C(=O)N4CCOCC4)n(C)c3nc12 | inactive | 
COc1ccc(CNc2nc(SCc3cc(=O)n4cc(Cl)ccc4n3)nc3ccccc23)cc1 | active: 20.6 µM | 
CCNC(=S)N1CCC(C(=O)c2ccc3c(c2)OCCO3)CC1 |  | inconclusive: -36% [inhibitor]
O=C(Nc1ccncc1)c1ccc(NS(=O)(=O)c2ccc3[nH]c(=O)[nH]c3c2)cc1 | inactive | 
Cc1ccc(CNC(=O)c2ccc(NC(=O)N3CCSc4ncccc43)cc2)cc1 | inconclusive [inhibitor, single point] | 
COC(=O)c1ccc(CN2CCC(Oc3ccc(C(=O)N4CCCCC4)cc3)CC2)cc1 | inconclusive [inhibitor, partial curve] | 
O=c1cc(NCc2ccccc2)nc2n1CCCS2 | inconclusive [inhibitor, partial curve, poor fit] | 
CCSc1nnc(NC(=O)C2CCCN(C(=O)c3ccc(Cl)cc3)C2)s1 (stereo not drawn) | active: 5.17 µM | 
Cc1c(C(=O)Nc2cccc(Cl)c2)sc2nc3n(c(=O)c12)N=C(c1cccc(Br)c1)CS3 | inactive | 
O=C(NC1CC2CCC(C1)N2Cc1nnnn1Cc1ccco1)NC12CC3CC(CC(C3)C1)C2 (stereo not drawn) | active: 18.4 µM | 
CCCc1nc2oc3c(NCC(C)O)ncnc3c2c2c1CCCC2 (stereo not drawn) | inconclusive [inhibitor, partial curve] | 
O=C1C2N=NN(CC(=O)N3N=C(c4cccc5ccccc45)CC3c3ccccc3)C2C(=O)N1c1ccccc1 (stereo not drawn) | active: 29.1 µM | 
O=S1(=O)c2c(F)cccc2O[C@@H](COCc2ccccc2)CN1CCc1ccc(F)cc1 | inconclusive [inhibitor, single point] | 
CCOC(=O)c1ccc(N(C(=O)c2ccco2)C(C(=O)NC2CCCCC2)c2ccncc2)cc1 (stereo not drawn) | inconclusive [inhibitor, single point] | 
COc1ccc(Cc2c(-c3ccco3)nc3ccc(Br)cn23)c(C)c1 | inconclusive [inhibitor, single point] | 
CCCN(c1ccc(OCC)cc1)c1ncnc2nc[nH]c12 | inconclusive [inhibitor, single point] | 
CCOc1ccc(NS(=O)(=O)c2ccc(C(=O)NC3CCN(Cc4ccccc4)CC3)cc2)cc1 | inconclusive [inhibitor, single point] | 
O=C1CSC(c2cccc([N+](=O)[O-])c2)N1c1c(F)cccc1F (stereo not drawn) |  | inconclusive: -35.9% [inhibitor]
COc1c(Cl)cc(C(=O)Nc2ccc(Cl)cn2)cc1Cl | inactive | 
